Measured values from PubChem BioAssay AID1671189 (National Center for Advancing Translational Sciences (NCATS), 2021).
Out of some 1,100 compounds screened, about 70 (6%) were called active. Another 22% or so got no clear call; they are omitted. The call rests on the fitted dose curve; in most records, active means well fitted curve in the direction sought with a large enough effect; inconclusive means small, poorly fitted or top-dose-only effect, or another doubt; inactive means no such curve, though single readings can be large or run the other way. The list shows a part of the results.

target: Polyunsaturated fatty acid lipoxygenase ALOX12 (Homo sapiens) (UniProt P18054); assay: Confirmatory qHTS assay for inhibitors of human arachidonate 12S-lipoxygenase (ALOX12): Round 2; details: purified human 12-LOX, xylenol orange absorbance; series mostly up to 125 µM; activity change, negative = inhibition: at the top concentration
UniProt P18054, sequence (P18054 whole entry, looked up): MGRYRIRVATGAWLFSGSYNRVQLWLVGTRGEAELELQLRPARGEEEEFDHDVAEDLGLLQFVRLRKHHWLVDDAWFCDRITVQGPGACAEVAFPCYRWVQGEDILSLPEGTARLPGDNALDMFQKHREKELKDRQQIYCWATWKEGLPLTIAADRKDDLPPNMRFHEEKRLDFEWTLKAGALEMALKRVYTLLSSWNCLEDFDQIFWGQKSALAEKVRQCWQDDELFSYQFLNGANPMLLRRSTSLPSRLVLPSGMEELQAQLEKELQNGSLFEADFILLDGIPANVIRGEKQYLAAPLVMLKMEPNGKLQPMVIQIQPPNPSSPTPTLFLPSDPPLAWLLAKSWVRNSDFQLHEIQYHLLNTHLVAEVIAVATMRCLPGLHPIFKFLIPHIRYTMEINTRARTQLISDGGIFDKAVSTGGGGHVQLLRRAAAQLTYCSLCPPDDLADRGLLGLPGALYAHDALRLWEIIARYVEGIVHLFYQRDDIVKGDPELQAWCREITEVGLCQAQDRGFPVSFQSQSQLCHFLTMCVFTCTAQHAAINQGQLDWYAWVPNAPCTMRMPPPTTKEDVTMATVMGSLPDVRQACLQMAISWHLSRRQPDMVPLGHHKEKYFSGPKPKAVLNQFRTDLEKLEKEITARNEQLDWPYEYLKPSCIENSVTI
Method in brief: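 Activity was measured as hydroperoxide formation via ferrous/xylenol orange, taking the 573 nm to 405 nm absorbance ratio. Reaction: 40 uM arachidonic acid, 30 min at room temperature, after 15 min compound preincubation with 150 nM enzyme, pH 7.0 Hepes buffer.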
On the % scale 0 is the no-effect control and ±100 the full control effect; potency means the concentration at half of the fitted maximal effect.

Compound	activity change, negative = inhibition	Potency
Cc1cc(C(=O)N2CCOCC2)c2c(C3CCNCC3)noc2n1	inactive: -16.5%	–
COC(=O)[C@H](c1ccccc1Cl)N1CCc2sccc2C1	inactive: -3.69%	–
Cc1cc(Cl)ccc1-c1ccccc1CN	inactive: -6.92%	–
CN1CC(=O)N(C2CCCNCC2)Cc2c1ncnc2N1CCCC(CO)C1 (stereo unspecified)	inactive: -7.7%	–
COc1cccc([S+](=O)([O-])N2CCn3c(nn(-c4ccc(Cl)cc4)c3=O)C2)c1	inactive: -7.73%	–
CCOC(=O)Cn1c(=O)n(-c2ccccc2OC)c2nc(-c3ccccc3F)nc(C(N)=O)c21	–	active: 11 µM
CN1CC(=O)N(C2CCNCC2)Cc2c(NC3CCCCC3O)ncnc21 (stereo unspecified)	inactive: -12.2%	–
COCCCNc1nc2c(S(=O)(=O)c3c(C)cc(C)cc3C)nnn2c2ccccc12	inactive: -28.1%	–
COc1ccc(-c2cc(C(=O)NC3CC3)c3c(C4CCNCC4)noc3n2)cc1	inactive: -20.3%	–
CN1CCCC1CCNc1nccc(-c2cnn(-c3ccc(F)cc3)c2)n1 (stereo unspecified)	inactive: 2.07% [at 64.5 µM]	–
Cc1ccccc1N(C)C1CN(C(=O)OC(C)(C)C)C1	inactive: -11.2%	–
O=C1CCN(C(=O)[C@@H]2CCCN2Cc2ccc(C(F)(F)F)cc2)CCCCCCN1	inactive: 0.301% [at 64.5 µM]	–
CN(c1ccccc1)C1CNC1	inactive: -27.1% [at 233 µM]	–
Cc1ccsc1CN1CCC2(Cc3ccccc3CNC2=O)C1 (stereo unspecified)	inactive: -17.9%	–
CC(C)C[C@@H](N)C(=O)O	inactive: -4.33%	–
O=C1Nc2ccccc2CC12CN(CC1CCCC1)C2	inactive: 13.7%	–

Compound	activity change, negative = inhibition	Potency
CN1CC(=O)N(C2CCCNCC2)Cc2c(NCc3cccc(Cl)c3)ncnc21 (stereo unspecified)	inactive: -4.28%	–
CN1CC(=O)N(C2CCCNCC2)Cc2c1ncnc2N1CCCCC1 (stereo unspecified)	inactive: -11.5%	–
COc1ccc(CNc2ncnc3c2CN(C2CCNCC2)C(=O)CN3C)cc1	inactive: -18.4%	–
O=C1Nc2ccccc2C12CCN(S(=O)(=O)c1ccccc1)C2 (stereo unspecified)	inactive: -17.9%	–
CCCNC(=O)[C@@H]1Cc2c[nH]c3cccc(c23)[C@H](CC(C)C)N1	inactive: 21.6% [at 64.5 µM]	–
CC(Cc1ccncc1)Nc1nccc(-c2cnn(-c3ccccc3F)c2)n1 (stereo unspecified)	inactive: 10.8% [at 64.5 µM]	–
CNc1ncc(-c2cccc3ccccc23)o1	inactive: -20.5% [at 64.5 µM]	–
CC(C)Nc1oc(-c2cccc3ccccc23)nc1C#N	inactive: 11.9% [at 64.5 µM]	–
O=C(c1ccccc1)N1CCC2(CC1)C(=O)NCN2C(=O)CCCN1CCCC1	inactive: -14%	–
CNC(C)c1cccc(F)c1 (stereo unspecified)	inactive: -12.5% [at 233 µM]	–
CN1CC(=O)N(C2CCCNCC2)Cc2c1ncnc2N1CCSCC1 (stereo unspecified)	inactive: -4.95%	–
COc1ccc(NCCN2CCCC2)cc1	inactive: -43.3% [at 233 µM]	–
CN1CC(=O)N(C2CCCNCC2)Cc2c(NCCc3ccccc3F)ncnc21 (stereo unspecified)	inactive: -17.6%	–
O=C(N1CCCC1)N1CCN(c2ccc(Cl)nn2)C(=O)C1	inactive: -25.5%	–
O=C1NC(=NC2CCCC2)C2(CCCN([S+](=O)([O-])c3cccc(C(F)(F)F)c3)C2)N1c1cc(F)cc(F)c1 (stereo unspecified)	inactive: -17.6%	–
